Laboratory results reported in article PMC11612456.
These are yes or no findings as the source states them, for the method shown. For part of these data: In cells and extracts the contact can be indirect. Some binding calls cover weakened binding; strength is not graded here. Sequences can lack the tags named with a protein. Blank lines part the entries; values can stand above or below the molecule they belong to.

By UniProt entry, the sequences of proteins in these tests, tags left out. Where a name states a change or a piece, a line headed by the entry shows the natural chain unless it says otherwise. Chains listed by the source or under a name are the forms on record and can include a tag or linker.
UniProt P49597: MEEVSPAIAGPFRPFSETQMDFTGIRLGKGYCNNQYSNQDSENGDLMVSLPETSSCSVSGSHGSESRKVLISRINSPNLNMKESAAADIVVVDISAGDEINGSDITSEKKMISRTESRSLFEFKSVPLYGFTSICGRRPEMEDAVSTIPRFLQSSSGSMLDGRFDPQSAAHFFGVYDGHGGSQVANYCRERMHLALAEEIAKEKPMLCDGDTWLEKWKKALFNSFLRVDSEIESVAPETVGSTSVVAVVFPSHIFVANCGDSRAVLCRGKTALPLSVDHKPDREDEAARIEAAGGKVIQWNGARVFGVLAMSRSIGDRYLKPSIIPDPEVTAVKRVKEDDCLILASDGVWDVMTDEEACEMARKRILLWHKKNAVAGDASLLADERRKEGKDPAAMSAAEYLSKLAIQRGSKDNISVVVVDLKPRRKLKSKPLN
cLUC-abi1-1 (P49597, form named): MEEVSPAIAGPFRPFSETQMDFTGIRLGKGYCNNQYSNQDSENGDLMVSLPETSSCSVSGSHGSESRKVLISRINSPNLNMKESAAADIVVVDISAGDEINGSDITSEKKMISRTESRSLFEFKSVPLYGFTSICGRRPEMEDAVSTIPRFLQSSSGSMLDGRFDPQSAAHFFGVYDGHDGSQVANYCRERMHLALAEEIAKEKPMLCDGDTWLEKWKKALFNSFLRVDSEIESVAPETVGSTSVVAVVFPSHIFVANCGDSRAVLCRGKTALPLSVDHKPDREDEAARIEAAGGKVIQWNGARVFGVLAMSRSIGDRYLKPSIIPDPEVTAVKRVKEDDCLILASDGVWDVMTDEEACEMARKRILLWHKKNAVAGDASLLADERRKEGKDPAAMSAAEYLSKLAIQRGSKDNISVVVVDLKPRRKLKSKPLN

What was measured:
[1] = molecular target: T1, BD-SnRK2.6 (pBridge) (Arabidopsis thaliana) (UniProt Q940H6); test: two-hybrid; yeast three-hybrid (Y3H): BD-SnRK2.6 in MCS I of pBridge, without or with BIK1 in MCS II (pMET), with pGADT7 AD fusions in yeast AH109; growth on SD-ALWHM without or with 1 M mannitol
T1 sequence: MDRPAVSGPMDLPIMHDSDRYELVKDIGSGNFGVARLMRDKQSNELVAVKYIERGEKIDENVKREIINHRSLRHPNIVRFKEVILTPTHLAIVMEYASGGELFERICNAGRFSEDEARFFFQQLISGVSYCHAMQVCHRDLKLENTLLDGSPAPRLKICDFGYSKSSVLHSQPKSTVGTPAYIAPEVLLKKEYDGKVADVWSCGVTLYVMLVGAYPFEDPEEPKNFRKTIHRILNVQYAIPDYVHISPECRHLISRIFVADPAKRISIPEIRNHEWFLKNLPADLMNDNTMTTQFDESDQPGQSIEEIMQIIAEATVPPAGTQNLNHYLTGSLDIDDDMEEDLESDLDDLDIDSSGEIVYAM

[2] = molecular target: T2, BD-SnRK2.6^13A/Fs (Arabidopsis thaliana) (UniProt Q940H6); test: two-hybrid; yeast two-hybrid (Y2H): pGBKT7 BD fusions and pGADT7 AD fusions in yeast strain Gold; growth on SD-LWH or SD-ALWH
T2 sequence: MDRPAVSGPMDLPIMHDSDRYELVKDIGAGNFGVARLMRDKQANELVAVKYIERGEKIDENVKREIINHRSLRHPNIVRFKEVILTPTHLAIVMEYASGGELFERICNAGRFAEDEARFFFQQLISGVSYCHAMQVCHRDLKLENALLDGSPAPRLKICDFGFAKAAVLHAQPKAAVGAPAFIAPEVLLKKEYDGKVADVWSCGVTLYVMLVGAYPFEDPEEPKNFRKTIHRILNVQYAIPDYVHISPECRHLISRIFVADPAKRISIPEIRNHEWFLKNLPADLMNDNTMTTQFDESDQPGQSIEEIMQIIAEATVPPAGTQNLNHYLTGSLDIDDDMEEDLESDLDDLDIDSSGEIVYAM

[3] = molecular target: T3, BD-SnRK2.6 (pGBKT7) (Arabidopsis thaliana) (UniProt Q940H6); test: as above
T3 sequence: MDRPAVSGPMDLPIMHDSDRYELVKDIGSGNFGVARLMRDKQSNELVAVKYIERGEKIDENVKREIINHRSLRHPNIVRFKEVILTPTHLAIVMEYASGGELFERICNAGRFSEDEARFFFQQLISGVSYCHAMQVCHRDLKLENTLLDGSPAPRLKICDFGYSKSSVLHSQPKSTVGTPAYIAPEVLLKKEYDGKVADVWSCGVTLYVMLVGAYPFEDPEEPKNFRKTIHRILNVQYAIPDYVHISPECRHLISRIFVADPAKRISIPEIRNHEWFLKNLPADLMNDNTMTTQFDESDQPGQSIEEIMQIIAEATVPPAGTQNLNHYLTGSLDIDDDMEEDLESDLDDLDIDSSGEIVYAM

[4] = molecular target: T4, BD-BIK1 (Arabidopsis thaliana) (UniProt O48814); test: as above
T4 sequence: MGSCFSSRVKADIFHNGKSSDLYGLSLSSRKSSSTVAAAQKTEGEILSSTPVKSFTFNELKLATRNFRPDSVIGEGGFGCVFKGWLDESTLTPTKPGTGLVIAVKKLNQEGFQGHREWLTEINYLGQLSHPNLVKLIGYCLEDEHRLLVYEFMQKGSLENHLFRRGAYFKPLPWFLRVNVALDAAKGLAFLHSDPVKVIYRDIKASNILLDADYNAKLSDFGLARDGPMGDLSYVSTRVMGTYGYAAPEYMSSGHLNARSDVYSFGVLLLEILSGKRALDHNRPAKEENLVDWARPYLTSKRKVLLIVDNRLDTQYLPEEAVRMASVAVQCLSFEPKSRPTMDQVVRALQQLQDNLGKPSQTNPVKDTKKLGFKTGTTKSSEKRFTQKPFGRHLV

[5] = molecular target: T5, BIK1-nLUC (Arabidopsis thaliana) (UniProt O48814); test: split reporter; split luciferase (LUC) complementation (LCI): nLUC and cLUC fusions transiently co-expressed in N. benthamiana leaves by Agrobacterium infiltration, LUC signal imaged with a CCD camera two days later; in some panels BIK1-GFP or GFP co-expressed
T5 sequence: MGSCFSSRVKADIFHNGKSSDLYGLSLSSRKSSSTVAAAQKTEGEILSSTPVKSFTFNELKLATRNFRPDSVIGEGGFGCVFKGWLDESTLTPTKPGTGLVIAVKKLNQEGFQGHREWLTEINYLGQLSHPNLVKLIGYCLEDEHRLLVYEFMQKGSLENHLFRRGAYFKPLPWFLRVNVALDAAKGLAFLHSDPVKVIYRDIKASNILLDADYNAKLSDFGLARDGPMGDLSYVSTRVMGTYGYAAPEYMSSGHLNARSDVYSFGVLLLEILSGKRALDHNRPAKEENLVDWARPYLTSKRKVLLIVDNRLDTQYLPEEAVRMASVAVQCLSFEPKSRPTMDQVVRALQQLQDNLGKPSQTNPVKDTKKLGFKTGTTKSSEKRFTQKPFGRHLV

[6] = molecular target: T6, SnRK2.6-nLUC (Arabidopsis thaliana) (UniProt Q940H6); test: as above
T6 sequence: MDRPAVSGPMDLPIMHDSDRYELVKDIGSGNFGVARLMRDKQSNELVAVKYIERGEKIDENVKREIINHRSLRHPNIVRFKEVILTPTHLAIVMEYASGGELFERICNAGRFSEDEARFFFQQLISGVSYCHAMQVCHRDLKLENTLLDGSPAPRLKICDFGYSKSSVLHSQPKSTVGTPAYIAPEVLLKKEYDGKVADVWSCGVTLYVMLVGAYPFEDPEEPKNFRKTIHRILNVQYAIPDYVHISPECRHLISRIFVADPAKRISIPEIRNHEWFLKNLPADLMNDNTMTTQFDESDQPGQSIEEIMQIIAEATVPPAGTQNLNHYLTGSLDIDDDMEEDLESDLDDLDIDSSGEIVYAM

[7] = molecular target: T7, SnRK2.6^13A/Fs-nLUC (Arabidopsis thaliana) (UniProt Q940H6); test: as above
T7 sequence: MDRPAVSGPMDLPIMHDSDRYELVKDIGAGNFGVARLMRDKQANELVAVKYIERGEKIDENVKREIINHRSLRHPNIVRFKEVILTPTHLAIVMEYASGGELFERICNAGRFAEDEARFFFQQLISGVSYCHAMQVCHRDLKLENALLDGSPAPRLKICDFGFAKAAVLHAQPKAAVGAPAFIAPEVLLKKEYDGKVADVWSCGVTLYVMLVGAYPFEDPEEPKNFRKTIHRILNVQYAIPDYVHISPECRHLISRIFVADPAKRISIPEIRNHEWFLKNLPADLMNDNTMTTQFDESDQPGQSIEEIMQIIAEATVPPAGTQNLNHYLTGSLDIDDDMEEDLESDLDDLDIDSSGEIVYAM

[8] = molecular target: T8, BIK1-HA (Arabidopsis thaliana) (UniProt O48814); test: co-IP; total proteins of pBIK1:BIK1-HA transgenic plants in IP buffer (Tris-HCl pH 7.5, NaCl, EDTA, EGTA, 0.2% Tween 20 at 2x), anti-HA nanobody magarose beads 2 h, three washes; blot with anti-SnRK2.2/3/6 and anti-HA
T8 sequence: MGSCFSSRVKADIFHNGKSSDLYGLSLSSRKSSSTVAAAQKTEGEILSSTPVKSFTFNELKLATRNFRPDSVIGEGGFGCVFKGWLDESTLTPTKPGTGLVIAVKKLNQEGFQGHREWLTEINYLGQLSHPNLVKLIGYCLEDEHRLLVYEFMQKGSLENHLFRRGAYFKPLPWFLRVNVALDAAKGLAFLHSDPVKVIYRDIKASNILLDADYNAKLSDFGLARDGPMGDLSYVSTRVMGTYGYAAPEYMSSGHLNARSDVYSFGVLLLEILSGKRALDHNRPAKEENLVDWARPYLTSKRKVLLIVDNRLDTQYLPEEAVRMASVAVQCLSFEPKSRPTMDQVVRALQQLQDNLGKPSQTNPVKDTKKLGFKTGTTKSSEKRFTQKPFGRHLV

Molecule: AD-ABI1 (from UniProt P49597 1-434)
binding [1]: binds
binding [2]: binds
binding [3]: binds
binding [4]: no binding

Molecule: AD-ABI1^W300A (from UniProt P49597 1-434)
binding [3]: binds

Molecule: cLUC-ABI1 (from UniProt P49597 1-434)
binding [5]: no binding
binding [6]: binds
binding [7]: binds

Molecule: cLUC-ABI1^W300A (from UniProt P49597 1-434)
binding [6]: binds

Molecule: cLUC-abi1-1 (from UniProt P49597 1-434)
binding [6]: binds

B1: endogenous SnRK2.2 (protein, UniProt Q39192 1-362)
chain: MDPATNSPIMPIDLPIMHDSDRYDFVKDIGSGNFGVARLMTDRVTKELVAVKYIERGEKIDENVQREIINHRSLRHPNIVRFKEVILTPSHLAIVMEYAAGGELYERICNAGRFSEDEARFFFQQLISGVSYCHAMQICHRDLKLENTLLDGSPAPRLKICDFGYSKSSVLHSQPKSTVGTPAYIAPEILLRQEYDGKLADVWSCGVTLYVMLVGAYPFEDPQEPRDYRKTIQRILSVTYSIPEDLHLSPECRHLISRIFVADPATRITIPEITSDKWFLKNLPGDLMDENRMGSQFQEPEQPMQSLDTIMQIISEATIPTVRNRCLDDFMADNLDLDDDMDDFDSESEIDVDSSGEIVYAL
binding [8]: binds

B2: endogenous SnRK2.3 (protein, UniProt Q39193 1-361)
chain: MDRAPVTTGPLDMPIMHDSDRYDFVKDIGSGNFGVARLMRDKLTKELVAVKYIERGDKIDENVQREIINHRSLRHPNIVRFKEVILTPTHLAIIMEYASGGELYERICNAGRFSEDEARFFFQQLLSGVSYCHSMQICHRDLKLENTLLDGSPAPRLKICDFGYSKSSVLHSQPKSTVGTPAYIAPEVLLRQEYDGKIADVWSCGVTLYVMLVGAYPFEDPEEPRDYRKTIQRILSVKYSIPDDIRISPECCHLISRIFVADPATRISIPEIKTHSWFLKNLPADLMNESNTGSQFQEPEQPMQSLDTIMQIISEATIPAVRNRCLDDFMTDNLDLDDDMDDFDSESEIDIDSSGEIVYAL
binding [8]: binds

Further lines, results first:

binding [3]: binds
Molecule: AD-ABI1^W300R (from UniProt P49597 1-434)

binding [1]: binds
Molecule: AD-abi1-1 (from UniProt P49597 1-434)

binding [6]: binds
Molecule: cLUC-ABI1^W300R (from UniProt P49597 1-434)
